Measurements: the supplement of paper PMC11417369
± gives the standard deviation of the averaged measurements. This is one part of the list.

tested on: PfAP2-LT AP2 domain (GST-tagged); experiment: gcPBM binding intensity (ln(normalized median fluorescence intensity)); higher = stronger DNA binding
How it was run: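 After 1 h on an Agilent 4 × 180k array of primer-extended double-stranded 36-bp intergenic genomic probes and negative controls, bound GST-tagged P. falciparum DNA-binding domains were detected with Alexa488 anti-GST antibody and scanned at 488 nm. The domains had been expressed in E. coli, and binding took place in 1× PBS with 1% milk, 0.2 mg/ml BSA, 0.5% salmon testes DNA and 0.03% Triton X-100. Binding intensity is the highest Masliner-normalised natural-log median intensity across replicate spots of either probe orientation.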

Row | Sequence | gcPBM binding intensity (ln)
1 | AATAAATTTCAAAATTGTACTCATTTCCTTTCCCAA [XGTACX_site5887] | 8.39 ± 0.51
2 | TGTGAAATAAAATTTGTACACACATATATATATATA [CACACA_site8093] | 9.45 ± 0.18
3 | ATATATAATTCCCAAGTGCATTTATTTTAATTATTA | 8.59 ± 0.43
4 | TTCATTCAAATCCAAGCATGCTTTATTAAAAAATTA [TGCATGCA_site567] | 8.27 ± 0.42
5 | ATAAAATTTTATATGGGTACATAATATAATATATAT [XGTACX_site8160] | 8.67 ± 0.47
6 | ATATATATATATATATGTACACATATATTTCTTTTC [XGTACX_site3443] | 9.745 ± 0.0071
7 | AAATGATATAAATTATAAAATGGATTTTTTCCATTG [CACACA_negctrl_site420] | 8.3 ± 0.42
8 | TTTAAAAATTAATTCTGTACACATTTTTATTATATT [XGTACX_site4212] | 8.8 ± 0.47
9 | TTTATGAAATGTTGCACACAAAAAACAACATGTTTT [CACACA_site1440] | 8.87 ± 0.38
10 | ATTCCTGGACCGTTCATGCACTTGCAGAACGTCCAT | 8.84 ± 0.4
11 | AAAAAAAAAAAAAGTGCACACGATTTAAGGCCTATA [CACACA_site2823] | 8.98 ± 0.4
12 | CATATTATTTAAACATGTACTCACATATAAATATAA [XGTACX_site6096] | 8.59 ± 0.53
13 | ATGAGTATACTAAGAACACACAAGTTACTTGGTGTT [CACACA_site4981] | 9.03 ± 0.49
14 | TATAACAAGTAATGTTGTACATTATATTATGTAATA [XGTACX_site2769] | 8.71 ± 0.49
15 | TTTTTTATTATTATGTGTACGAATATGTGCATATAA [XGTACX_site1364] | 8.69 ± 0.47
16 | TAAAAAAAAAAAATGTGTACATATTATATATATCTT [XGTACX_site2615] | 8.52 ± 0.45
17 | TTTTTTCTCTATATATGTACATATAAAAAATATATC [XGTACX_site6382] | 8.45 ± 0.5
18 | GTTACACAAACAAACACACACACACGCACGCACAAA [CACACA_site7191] | 10 ± 0.2
19 | TTCTTTATTTTTTCTACACACATTAGATATTCAAAG [CACACA_site7624] | 8.98 ± 0.4
20 | CAAAATTAATAAGTCACACACACATCTATAATATAT [CACACA_site6519] | 9.72 ± 0.21
21 | ACCATAACATGAATTACAGGAATTGAAAATGTTCCA [CACACA_negctrl_site649] | 8.68 ± 0.52
22 | TATATATATATATTCACACATAAGATGAATAAAGTG [CACACA_site4225] | 8.96 ± 0.29
23 | GTATTATATATAAAAGTGCATATTTTTTTCCCTTAC | 8.68 ± 0.5
24 | GGTTACATTTTATTTTGTACATAAAAATTTTTATTT [XGTACX_site218] | 8.78 ± 0.46
25 | TGTTTATAAATATAAAAAAATATATATATATATTAT [GTGCAC_negctrl_site247] | 8.4 ± 0.41
